In PubChem BioAssay AID1508624 (National Center for Advancing Translational Sciences (NCATS), 2021):
In all, about 48,000 compounds went through this assay and about 120 (0.25%) were called active. About 4% were inconclusive and are not listed. Calls come from the whole dose curve; as a rule, active = well fitted activation curve with a large enough effect; inconclusive = small, poorly fitted or top-dose-only effect, or another doubt; inactive = no such curve, though single readings can be large or run the other way. The list shows a part of the results.

Assay: Primary qHTS for Identification of Small Molecule Activators of Huntingtin-Antisense Promoter Activity; note: nearly all actives have a fitted effect of over 55% in size
Conditions: HEK293 HTT-AS promoter firefly luciferase reporter, 24 h; series mostly up to 57.5 µM; activity change, positive = activation: at the top concentration
Procedure, shortened: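 Luminescence was read after Dual-Glo reagent and a 10 min room-temperature incubation. Values were normalized to vehicle (0% activity) and zero RLU (-100% activity). Reporter HEK293 cells had been exposed to compounds (up to 57.5 uM final) for 24 h.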

Activity change, positive = activation, inactive:
O=c1[nH]c(C2CCCN(S(=O)(=O)c3ccccc3)C2)nc2c1nnn2Cc1ccc(OC(F)(F)F)cc1 (centres undefined) 15.6%, O=C(C1CCC(Cn2c(=O)c3sccc3n(Cc3ccc(F)cc3)c2=O)CC1)N1CCOCC1 (centres undefined) -20%, CN1C(=O)c2[nH]nc(-c3ccc(F)cc3)c2C1c1cccc(O)c1 (centres undefined) -20.2%, Cn1cc(-c2cc3n(n2)CCC(=O)N3CCCC(=O)NCc2ccccc2Cl)c2ccccc21 -12.7%, Cc1cc(C)cc(Nc2nc3cc(Cl)c(Cl)cc3nc2-n2nc(C)cc2C)c1 -16.5%, CC(C)CCn1c(SCc2cccc(F)c2)nc2ccsc2c1=O -18.9%, CCc1ccc2oc(C(=O)NCc3ccccc3)cc(=O)c2c1 28% [at 11.5 µM, percent change from vehicle, -100% = no light], C#CC(C)(CC)NC(=O)Cn1nnc(-c2ccc(OCc3c(F)cccc3Cl)cc2)n1 (centres undefined) -29.4%, COc1cc(NC(=O)CN(c2cc(C)cc(C)c2)S(=O)(=O)c2c(C)[nH]c(=O)[nH]c2=O)cc(OC)c1 -16%, Cc1cn2c(=O)cc(COc3ccc(NC(=O)COc4ccccc4)cc3)nc2s1 -0.191%, Cc1ccc(-n2c(=O)c3ccc(C(=O)NCc4ccccc4Cl)cc3n(CC(=O)Nc3ccc(C)cc3C)c2=O)cc1 -10.8%, Cc1cc(C)cc(C(=O)n2nc(C)c(S(=O)(=O)N3CCOCC3)c2C)c1 -8.22%, O=C(CSc1ncc2c(n1)-c1ccccc1N(Cc1ccc(F)cc1)S2(=O)=O)NCCc1ccccc1 7.59%, CCOC(=O)c1c(NC(=O)c2ccc(F)cc2)sc2c1CCC(CC)C2 (centres undefined) -12.9% [at 11.5 µM, percent change from vehicle, -100% = no light], Cc1ccc(Nc2cc(C)nc3nncn23)c(C)c1 -6.05%, CCOC(=O)c1cccc(NC(=O)[C@H](CSCc2ccccc2)N2Cc3ccccc3C2=O)c1 -20.6%, COc1ccc(-n2c(SCc3ccccc3)nc3c([nH]c4ccccc43)c2=O)cc1 -15.7%, COc1cccc(CNC(=O)Cn2nc(N3CCN(c4ccccc4OC)CC3)ccc2=O)c1 -9.51%, COc1ccc(C)cc1NC(=O)CN1C(=O)COc2ccc(S(=O)(=O)N3CCC(C)CC3)cc21 -20.3%, Cc1c(Cl)cccc1NC(=O)C(C)n1c(=O)cc(C)c2c(C)nn(-c3ccccc3)c21 (centres undefined) -2.67%, CCOc1ccc(-n2c(=O)c3c(C)c(C)sc3n(Cc3ccccc3C)c2=O)cc1 -2.44%, CCCCOc1ccc(C2C(=O)N(C3CCCCC3)CC(=O)N2CCCC)cc1 (centres undefined) -6.25%, Cc1cc(C)cc(C(=O)N2CC(=O)Nc3ccc(Br)cc3C2c2ccccc2)c1 (centres undefined) -48.6%, Cc1ccc(NC(=O)Cn2c(-c3nonc3N)nc3ccccc32)c(Br)c1 -19.4%, COc1cccc(CNC(=O)CCc2c(C)c3ccc(O)c(C)c3oc2=O)c1 -5.72%, CCOC(=O)c1noc2ncn(CC(=O)Nc3ccccc3OC)c(=O)c12 -8.95%, Cc1ccc(-n2ncc(C(=O)NCCCN3CCc4ccccc4C3)c2C2CCN(C(=O)OC(C)(C)C)CC2)c(C)c1 -21.5%, CCCCN(CC)CCCNC(=O)c1ccc2c(c1)NC(=O)CN2C -6.76%, COc1ccc(Cl)cc1NC(=O)C(C)n1nnc2sc3c(c2c1=O)CCCC3 (centres undefined) -13.1%, COc1ccccc1C(=O)Nc1cc(-c2cccc(Br)c2)nn1-c1ccccc1 -5.83%, Cc1cc(C)cc(N2C(=O)CC(c3ccc(C(F)(F)F)cc3)C3=C2COC3=O)c1 (centres undefined) -13.6%, CCN1CCN(c2csc3ccc(Cl)cc3c2=O)CC1 25.6%, Cc1cccc(NC(=O)CSc2nc(-c3cccs3)cc(C(F)(F)F)c2C#N)c1 -13.3%, CCCCn1c(Oc2cccc(C(=O)OC)c2)nc2c1c(=O)n(C)c(=O)n2C -8.07%, COc1ccc(Cn2c(SCC(=O)NCc3ccccc3)nc3ccccc32)cc1 -27.2%, Cc1ccc(C(=O)NCC(=O)OCc2cc(=O)n3nc(C4CCCCC4)sc3n2)cc1 -5.19%, CCOc1ccc(NC(=O)Cn2nnc(C(=O)OC)c2C(=O)OC)cc1 -18.7%, COc1ccc(C(=O)NC2(C(F)(F)F)C(=O)NC(C)=C2C#N)cc1 (centres undefined) -12.8%, Cc1ccc2c(c1)C(c1ccc(F)cc1)N(C(=O)C(C)C)CC(=O)N2 (centres undefined) -10.2%, CCc1cccc(NC(=O)Cn2nc(CC)n3c(cc4cc(C)ccc43)c2=O)c1 13.2%, O=c1oc2ccc3ccccc3c2cc1-c1nnc(Nc2ccccc2)s1 -7%, CCNC(=O)CCSc1nnc(-c2ccc(O)cc2)o1 15.6%, CCC(Oc1ccc(F)cc1)C(=O)Nc1cc(-c2ccc(C)cc2)no1 (centres undefined) 0%, COc1cccc(CNC(=O)Nc2cc(C(=O)NCc3cccc(F)c3)ccc2N2CCCC2)c1 -25.4%, O=C1NC(=O)C(=Cc2ccc3c(c2)OC(F)(F)O3)S1 -19.4%, CCN(CC)c1ccc(NC(=O)c2cc(CN3CCCC3)on2)c(C)c1 -9.57%, CCOc1cc(CNC(=O)c2ccc(NC(=O)c3nsc4ccccc34)cc2)ccc1OC -46.5%, Cn1c(=O)c2ccccc2n2c(CCC(=O)N3CCN(c4cccc(Cl)c4)CC3)nnc12 1.8%, CCN(CC)c1ccc(NC(=O)Cn2c(C)c3cnn(-c4ccccc4)c(=O)c3c2C)c(C)c1 -12.4%, Cc1cc(Cl)ccc1NC(=O)CCS(=O)(=O)c1cc2c(cc1C)NC(=O)CO2 -16%, COC(=O)c1c(-c2cccs2)csc1NC(=O)c1cc(OC)cc(OC)c1 29.3%, Cc1ccc(CNC(=O)C(CC(C)C)N2Cc3ccccc3C2=O)cc1 (centres undefined) -11.7%, O=C(NCCSc1c(-c2ccc(Br)cc2)[nH]c2ccccc12)c1ccc(S(=O)(=O)N2CCOCC2)cc1 -23.4%, Clc1cccc(-n2ncc3c(NCCCc4ccccc4)ncnc32)c1 -8.33%, Cc1cc(C)cc(NC(=O)C(Cc2ccccc2)N2Cc3ccccc3C2=O)c1 (centres undefined) -14%, COc1cc(C(C)=O)ccc1OCCCN1CCC(c2noc3cc(F)ccc23)CC1, Cc1ccc(CCNC(=O)c2sc3ncccc3c2-n2cccc2)cc1 6.02%, COc1cc(NC(=O)c2nc3cc(C)c(C)cc3n(C)c2=O)cc(OC)c1OC 12.2%, COc1cccc(NC(=O)CSc2nc(O)c(C/C=C/c3ccccc3)c(=O)[nH]2)c1 -14%
